Results reported in the BET-seq Pho4 binding data (Le et al. 2018).
The list shows a part of the results. Values were computed here from the reads of four pooled replicates and scatter widely.

Target: T1, Pho4 (S. cerevisiae) (UniProt P07270)
T1 sequence: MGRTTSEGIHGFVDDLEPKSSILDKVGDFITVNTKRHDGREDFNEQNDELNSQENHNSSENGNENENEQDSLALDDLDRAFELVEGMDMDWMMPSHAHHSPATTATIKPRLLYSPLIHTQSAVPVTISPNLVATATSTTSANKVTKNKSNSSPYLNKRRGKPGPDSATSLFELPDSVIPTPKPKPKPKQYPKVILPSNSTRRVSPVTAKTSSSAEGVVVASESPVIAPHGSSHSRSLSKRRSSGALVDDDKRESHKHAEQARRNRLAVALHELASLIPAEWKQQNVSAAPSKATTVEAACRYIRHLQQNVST
Assay: relative binding free energy (BET-seq); higher = weaker binding
Conditions: reference: library average

Row | Sequence | relative binding free energy [kcal/mol]
1 | TGTTGCACGTGTTAGT | 0.03
2 | ATACGCACGTGGTAGG | -0.18
3 | ACTATCACGTGTTAGG | 0.11
4 | ACGTTCACGTGGTCTT | 0.09
5 | ATTTGCACGTGGGTTT | -0.07
6 | AAGGGCACGTGGTCAT | -0.23
7 | GGTGGCACGTGATACG | 0.01
8 | TTTCTCACGTGTTGGA | 0.29
9 | TTTATCACGTGCGTGG | 0.09
10 | TGTGTCACGTGATCTT | 0.19
11 | GTAGTCACGTGTGAAG | 0.24
12 | TGCTACACGTGAGGTG | 0.2
13 | ATGCGCACGTGGTAGG | -0.25
14 | TTTCGCACGTGGATGT | 0.01
15 | ATTCGCACGTGGTTAG | 0.03
16 | TTATGCACGTGCTGGC | -0.14
17 | AGGTGCACGTGTAACG | 0.09
18 | ATATGCACGTGGAGGA | -0.01
19 | TTTAGCACGTGGTTCT | -0.04
20 | CGATTCACGTGTATGG | 0.23
21 | TTGAGCACGTGGGACA | -0.18
22 | TAGTCCACGTGTTTTG | 0.07
23 | AGTTGCACGTGGGCAT | -0.27
24 | ATCTACACGTGTGGTG | 0.13
25 | CTGGTCACGTGTGAGG | 0.15

Row | Sequence | relative binding free energy [kcal/mol]
26 | AGTTACACGTGATGAT | 0.22
27 | GTCAACACGTGAGGGG | 0.24
28 | AGGTGCACGTGACAGG | 0.09
29 | CAGTACACGTGGTGGT | 0.01
30 | GGGTACACGTGAATTT | 0.47
31 | GGGGACACGTGAAAGT | 0.27
32 | TTTTGCACGTGTTGAA | 0.1
33 | GTAGGCACGTGAGCAG | 0.15
34 | TGGGCCACGTGATTGA | 0.13
35 | CGGTACACGTGGGAAA | 0.23
36 | TTTGACACGTGCTATT | -0.04
37 | AGTGTCACGTGTTTAT | 0.1
38 | GCGATCACGTGTTGGT | 0.26
39 | GGTTACACGTGGGGGA | 0.02
40 | AGTTGCACGTGCGTTG | -0.06
41 | CAGGGCACGTGAGCGG | 0.18
42 | AGTGACACGTGATGAT | 0.13
43 | TTGATCACGTGATATT | 0.22
44 | ATTTTCACGTGTTTCG | 0.29
45 | TTTCTCACGTGGGTGA | 0
46 | TGCTACACGTGGTGGC | 0.18
47 | ATCGTCACGTGTGTGT | 0.05
48 | GGTATCACGTGGTACT | 0.12
49 | TGCATCACGTGACGTG | 0.26
50 | GAAGCCACGTGAGGGG | 0.31

Row | Sequence | relative binding free energy [kcal/mol]
51 | GAAGGCACGTGAGTGG | 0.09
52 | CATTTCACGTGGGTGT | 0.2
53 | ATAGACACGTGGGGTG | -0.1
54 | TTGATCACGTGCTATT | 0.02
55 | AAGGCCACGTGGAGGT | -0.11
56 | TTAGGCACGTGGTGTA | -0.18
57 | TGATTCACGTGTGTTT | 0.29
58 | TTTTGCACGTGAGAGC | 0.19
59 | TTATTCACGTGTGCGT | 0.17
60 | CCTGGCACGTGGTTAG | -0.19
61 | TGGTGCACGTGGCTTG | -0.05
62 | CATTGCACGTGTTGTG | -0.08
63 | TTCGTCACGTGTTGTT | 0.18
64 | TTCGCCACGTGGATGG | 0.09
65 | AGGGACACGTGTCATT | 0
66 | GGGGTCACGTGCCTAG | 0.19
67 | GGATACACGTGGGGTG | -0.1
68 | GAGGTCACGTGATGGT | 0.38
69 | CTTTGCACGTGTGGCG | -0.04
70 | AATGTCACGTGATGAG | 0.08
71 | GGTTGCACGTGGGGCG | 0.01
72 | GTCGTCACGTGGCTGT | 0.04
73 | GTTCGCACGTGTCTTG | -0.03
